# Data reported in PubChem BioAssay AID1345083 (National Center for Advancing Translational Sciences (NCATS), 2018).
# Out of some 94,000 compounds screened, about 6,200 (6.6%) were called active. The shares of active, inactive and inconclusive entries below differ from those in the screen. Calls follow the shape of the dose curve; as a rule, active = well fitted inhibition curve with a large enough effect; inconclusive = small, poorly fitted or top-dose-only effect; inactive = flat fitted curve, though single readings scatter. Potencies beside an inconclusive call are fits to weak or partial responses and may not hold up.
# Assay: Cytotoxic Profiling in HEK 293 Cell Line of Diverse Libraries Using Quantitative High-Throughput Screening; also: nearly all actives have a fitted effect of over 60% in size
# Conditions: HEK 293 viability, ATP luminescence (CellTiter-Glo), 48-72 h; activity change, negative = cytotoxicity: at 115 µM (top of the series) unless noted; series mostly up to 115 µM
# In short: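 Cytotoxicity was scored by loss of ATP-coupled luminescence (CellTiter-Glo) in HEK 293 cells. Compound treatment ran 48 or 72 hr at 37 degree Celsius, 5% CO2, 95% humidity.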
# % is scaled to controls: 0 for no effect and ±100 for the full control effect; potency is read from the fitted curve at half-maximal effect; tags tell the direction and shape of the fitted curve.
Structure (SMILES),Potency,"activity change, negative = cytotoxicity",outcome
O=C(NC1CCN(c2cc(-c3cccs3)[nH]n2)C1)c1cccc(Br)c1 (centres undefined),"inconclusive: 31.6 µM [inhibitor, partial curve, poor fit]",,
COc1cccc(N2C(=O)NC(=NC3CCCCC3)C23CCN(CCC(C)C)C3)c1 (centres undefined),,inactive: -12%,
Cc1nn(-c2ccccc2)c2c1C(C(C)C)N(C1CCCN(C(=O)c3ccc(Cl)nc3)C1)C2=O (centres undefined),active: 39.8 µM,,
COc1cccc(C(=O)NC2CCN(c3cc(-c4ccc(Cl)cc4)[nH]n3)C2)c1 (centres undefined),"inconclusive: 50.1 µM [inhibitor, partial curve, poor fit]",,
COc1ccc(C(=O)N[C@@H]2CCC[C@@H]2C(=O)NCc2cc(OC)cc(OC)c2)cc1,,,inactive
O=C1N[C@H](CC(=O)N2CCN(c3ccc(C(F)(F)F)cn3)CC2)C(=O)Nc2ccccc21,"inconclusive: 70.8 µM [inhibitor, partial curve, poor fit]",,
O=C(Cn1ccn2nc(-c3ccccc3)c(CO)c2c1=O)Nc1ccc(Br)cc1,"inconclusive: 50.1 µM [inhibitor, partial curve, poor fit]",,
O=C1NC2(CCN(Cc3ccccc3C(F)(F)F)CC2)COc2ccccc21,,inactive: -2.64%,
CC(C)(C)c1csc(NC(=O)C[C@H]2NC(=O)c3ccccc3NC2=O)n1,"inconclusive: 35.5 µM [inhibitor, partial curve, poor fit]",,
O=C(Nc1ccnn1C1CCN(Cc2cccc(F)c2F)CC1)c1ccccc1Cl,"inconclusive: 79.4 µM [inhibitor, partial curve, poor fit]",,
O=C(c1cccc(F)c1)N1CCC[C@H]1c1nc(-c2ccccc2)no1,"inconclusive: 89.1 µM [inhibitor, single point]",,
O=C(c1ccc2oc(-c3ccncc3)nc2c1)N1CCOCC1,,inactive: -15.2%,
CCc1noc(-c2ccn3c(CNC(=O)CCC4CCCC4)nnc3c2)n1,,,inactive
COc1cccc(-c2nccc3c(=O)cc(N4CCOCC4)oc23)c1,"inconclusive: 100 µM [inhibitor, partial curve]",,
COc1ccc(C2Cn3cnc(C(=O)N4CCC(C(=O)NCC5CC5)CC4)c3CO2)cc1 (centres undefined),,inactive: -7.85%,
CSCC[C@@H]1NC(=O)c2cc(NC(=O)c3n[nH]c4c3CCC4)ccc2NC1=O,,inactive: -4.16%,
CCC1(N2CCN(S(=O)(=O)c3cc(F)ccc3C)CC2)CCN(S(C)(=O)=O)C1 (centres undefined),"inconclusive: 79.4 µM [inhibitor, partial curve, poor fit]",,
COc1ccccc1C(=O)N1CCc2nc(C(C)C)nc(-c3ccc(O)cc3)c2C1,,inactive: -9.71%,
CN(Cc1ccccc1)C1(C(=O)NC2CCC(O)CC2)Cc2ccccc2C1 (centres undefined),"inconclusive: 63.1 µM [inhibitor, partial curve, poor fit]",,
COc1cccc(-c2cc(C(=O)NCc3ccccc3Cl)c3cnn(C)c3n2)c1,"inconclusive: 35.5 µM [inhibitor, partial curve]",,

Structure (SMILES),Potency,"activity change, negative = cytotoxicity",outcome
COCCC1(CO)CCCN(Cc2cc(Cl)cc(OC)c2OC)C1 (centres undefined),"inconclusive: 35.5 µM [inhibitor, single point]",,
CCCNC(=O)N1CCCC(c2nc(CCOc3cccc(C)c3)no2)C1 (centres undefined),"inconclusive: 79.4 µM [inhibitor, partial curve, poor fit]",,
COc1cccc(-c2cc(C(=O)NCc3cccnc3)c3cnn(C)c3n2)c1,"inconclusive: 50.1 µM [inhibitor, partial curve, poor fit]",,
C/C(=C\c1ccccc1)CN1CCC2(CC1)Cc1ccccc1CNC2=O,"inconclusive: 70.8 µM [inhibitor, partial curve, poor fit]",,
Cc1ccc(C#N)c(N2CCC3(CC2)CC(c2ccccc2)C(=O)N3C)n1 (centres undefined),"inconclusive: 79.4 µM [inhibitor, partial curve]",,
CCN(CCOc1ccc(F)cc1)C(=O)c1cnc(NC(C)C)nc1,"inconclusive: 79.4 µM [inhibitor, partial curve, poor fit]",,
O=C(c1ccncc1)N1CCN(Cc2ccccc2-c2ccccc2F)CC1,"inconclusive: 89.1 µM [inhibitor, single point]",,
CC(=O)N1CCN(c2nc3c(s2)CC(C(=O)NCC2CCCCC2)CC3)CC1 (centres undefined),"inconclusive: 50.1 µM [inhibitor, partial curve, poor fit]",,
CN(C)c1cccc(-c2ncc3c(n2)OCCN(Cc2ccc(F)cc2F)C3=O)c1,"inconclusive: 44.7 µM [inhibitor, full curve]",,
CCCCSCc1cc(C(=O)N2CC(C)(C)C(C)(O)C2)oc1C (centres undefined),"inconclusive: 56.2 µM [inhibitor, partial curve, poor fit]",,
NCc1ccc(-c2cccc(C(F)(F)F)c2)cc1,active: 31.6 µM,,
O=C(c1nnc(CN2CCN(CCO)CC2)n1-c1ccccc1)N1CCC[C@@H]1C(c1ccccc1)c1ccccc1,"inconclusive: 50.1 µM [inhibitor, partial curve, poor fit]",,
Cc1ccc(-n2nc(C)c([C@H]3C=C[C@@H](OC(=O)N[C@H](C)c4ccccc4)C3)c2C)cc1Cl,"inconclusive: 50.1 µM [inhibitor, partial curve, poor fit]",,
C[C@H](C(=O)N1Cc2ccccc2CC2(CCN(C)CC2)C1)c1ccccc1,"inconclusive: 89.1 µM [inhibitor, single point]",,
Cn1ncc(N2CCCC(CC(=O)NCCC3=CCCCC3)C2)cc1=O (centres undefined),,inactive: -4.73%,
O=C(NCCc1ccc(Cl)cc1)c1ccc2oc(-c3ccccn3)nc2c1,"inconclusive: 89.1 µM [inhibitor, single point]",,
N#Cc1ccc(CN2CC[C@H](c3nnc(-c4ccccc4F)o3)C2)cc1,"inconclusive: 112 µM [inhibitor, single point]",,
COc1ccc(C(=O)NC[C@H]2Cn3c(-c4ccc(F)cc4)cnc3CO2)cc1,"inconclusive: 126 µM [inhibitor, partial curve, poor fit]",,
COc1cccc(Nc2ncc3c(n2)C(C)(C(=O)NCCN2CCOCC2)CC3)c1 (centres undefined),"inconclusive: 126 µM [inhibitor, single point]",,
